{"source": "the supplement of paper PMC3334620", "note": "Whole data set: some 33,000 sequences, median “E-score (-0.5 to 0.5)” near -0.016, cut for the highest 2% near 0.32. The list shows a part of the results."}
{"biological_target": "T1, Stp1 (UniProt B3LFK1)", "T1 sequence": "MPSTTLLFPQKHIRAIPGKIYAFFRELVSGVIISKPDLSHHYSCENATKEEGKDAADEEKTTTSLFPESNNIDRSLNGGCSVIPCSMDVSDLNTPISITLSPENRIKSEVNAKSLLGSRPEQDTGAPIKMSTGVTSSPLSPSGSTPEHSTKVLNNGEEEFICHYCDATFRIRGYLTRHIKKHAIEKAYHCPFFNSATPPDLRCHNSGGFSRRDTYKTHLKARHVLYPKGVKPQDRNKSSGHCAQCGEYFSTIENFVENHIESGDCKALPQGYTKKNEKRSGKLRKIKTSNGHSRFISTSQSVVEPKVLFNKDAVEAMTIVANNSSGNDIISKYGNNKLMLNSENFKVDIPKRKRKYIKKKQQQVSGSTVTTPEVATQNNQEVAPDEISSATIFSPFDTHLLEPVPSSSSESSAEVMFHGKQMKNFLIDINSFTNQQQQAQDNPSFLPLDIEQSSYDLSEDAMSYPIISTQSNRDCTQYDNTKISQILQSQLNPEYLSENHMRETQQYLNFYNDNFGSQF", "assay": "PBM E-score (8-mer binding enrichment) (E-score (-0.5 to 0.5)); higher = stronger / more preferred TF binding; most listed sequences are background and not binding sites", "details": "protein concentration: 200 nM; construct: GST-full length", "method": "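Universal 'all 10-mer' protein binding microarrays (Agilent AMADID 015681) probed with GST-tagged S. cerevisiae TFs (full-length or DBD) made by in vitro transcription/translation (PURExpress), about 100-200 nM. Bound TF was detected with fluorescent anti-GST. Each ungapped 8-mer (which stands for itself and its reverse complement) is scored by the PBM enrichment score (E-score), a modified Wilcoxon-Mann-Whitney statistic from -0.5 to +0.5, computed with the Universal PBM Analysis Suite. Scale: above 0.35 generally sequence-specific binding.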"}
{"sequence": "ATGGTCAC", "PBM E-score": -0.0726}
{"sequence": "CGCGAGAG", "PBM E-score": 0.0481}
{"sequence": "ACGGAAAA", "PBM E-score": 0.127}
{"sequence": "AACCGGAC", "PBM E-score": -0.168}
{"sequence": "TAATCGGA", "PBM E-score": 0.126}
{"sequence": "ATCCTCGA", "PBM E-score": -0.0372}
{"sequence": "CTCACAAC", "PBM E-score": 0.219}
{"sequence": "CGTTAAGA", "PBM E-score": 0.104}
{"sequence": "TGTGGTAA", "PBM E-score": 0.0259}
{"sequence": "AGTCACAT", "PBM E-score": -0.0417}
{"sequence": "ACCTGCCA", "PBM E-score": -0.0478}
{"sequence": "GGCTGCAA", "PBM E-score": 0.06}
{"sequence": "TCTATGAA", "PBM E-score": 0.1}
{"sequence": "CCAAAACA", "PBM E-score": -0.022}
{"sequence": "CCACAGAG", "PBM E-score": 0.0573}
{"sequence": "ATCCCAGA", "PBM E-score": -0.151}
{"sequence": "ACATTCCA", "PBM E-score": -0.0541}
{"sequence": "TGCTTCAA", "PBM E-score": 0.0325}
{"sequence": "ATGTACCC", "PBM E-score": -0.0943}
{"sequence": "ACAACCAG", "PBM E-score": 0.0579}
{"sequence": "TAAAACGA", "PBM E-score": -0.104}
{"sequence": "AATAGAGT", "PBM E-score": -0.0387}
{"sequence": "CAAGTGAG", "PBM E-score": -0.212}
{"sequence": "CAATGTAA", "PBM E-score": 0.147}
{"sequence": "CTCCACAG", "PBM E-score": -0.0914}
{"sequence": "CGCGATGA", "PBM E-score": -0.115}
{"sequence": "AATCGAGG", "PBM E-score": 0.0389}
{"sequence": "AATGTCTG", "PBM E-score": -0.15}
{"sequence": "TCCCGTCA", "PBM E-score": -0.193}
{"sequence": "ATTAATCA", "PBM E-score": 0.197}
{"sequence": "GAACGACC", "PBM E-score": -0.446}
{"sequence": "CCTGAAGA", "PBM E-score": 0.134}
{"sequence": "TCATGACA", "PBM E-score": 0.0942}
{"sequence": "AAAACCGA", "PBM E-score": 0.165}
{"sequence": "AGCAGGGA", "PBM E-score": -0.144}
{"sequence": "CTAACTAG", "PBM E-score": 0.185}
{"sequence": "CCCATCCC", "PBM E-score": -0.0306}
{"sequence": "CCTGCGAA", "PBM E-score": 0.0686}
{"sequence": "GCGTCGAA", "PBM E-score": 0.185}
{"sequence": "CAGCAGAA", "PBM E-score": 0.0405}
{"sequence": "CACACACA", "PBM E-score": 0.132}
{"sequence": "AGGCACAT", "PBM E-score": 0.276}
{"sequence": "AATGTATC", "PBM E-score": 0.124}
{"sequence": "AGAAGAAC", "PBM E-score": -0.112}
{"sequence": "CGCATGAA", "PBM E-score": 0.0568}
{"sequence": "AAACATCC", "PBM E-score": -0.0685}
{"sequence": "CTACACGA", "PBM E-score": 0.0596}
{"sequence": "AACATGAG", "PBM E-score": -0.0339}
{"sequence": "ATGGCAAA", "PBM E-score": 0.197}
{"sequence": "AGGGATGC", "PBM E-score": -0.276}
{"sequence": "AAATTACG", "PBM E-score": 0.0279}
{"sequence": "ACGAACTG", "PBM E-score": -0.0676}
{"sequence": "ATTTGTCG", "PBM E-score": 0.146}
{"sequence": "ACTATGAC", "PBM E-score": -0.161}
{"sequence": "GACTATGC", "PBM E-score": 0.0992}
{"sequence": "CCTATCCA", "PBM E-score": -0.178}
{"sequence": "ACCTTGAA", "PBM E-score": -0.0465}
{"sequence": "CCGGAGCC", "PBM E-score": 0.106}
{"sequence": "GCCTGGCC", "PBM E-score": -0.131}
{"sequence": "ATACGATA", "PBM E-score": 0.134}
{"sequence": "AAGCCTTG", "PBM E-score": 0.0913}
{"sequence": "ACGTAAGT", "PBM E-score": -0.0623}
{"sequence": "ATGGATGA", "PBM E-score": -0.2}
{"sequence": "GACCACCC", "PBM E-score": -0.319}
{"sequence": "TACACGAA", "PBM E-score": 0.197}
{"sequence": "ATCCGTTG", "PBM E-score": 0.0915}
{"sequence": "AGGGCTAT", "PBM E-score": -0.325}
{"sequence": "ACCTAGTC", "PBM E-score": -0.201}
{"sequence": "TCACATCA", "PBM E-score": 0.0347}
{"sequence": "CCTCATGA", "PBM E-score": 0.116}
{"sequence": "AACGTATG", "PBM E-score": -0.0401}
{"sequence": "ACCACCCG", "PBM E-score": -0.166}
{"sequence": "AGGAGTTA", "PBM E-score": -0.0828}
{"sequence": "TACGGGAA", "PBM E-score": -0.0475}
{"sequence": "CGGGAGAA", "PBM E-score": -0.111}
{"sequence": "CAAGAGGG", "PBM E-score": -0.0331}
{"sequence": "ACTAATCA", "PBM E-score": 0.093}
{"sequence": "CAATTTCG", "PBM E-score": -0.094}
{"sequence": "AAAGAGAG", "PBM E-score": -0.0373}
{"sequence": "ACTAGCGC", "PBM E-score": -0.0687}
{"sequence": "CCCGGAAA", "PBM E-score": 0.00798}
{"sequence": "CAGGATCG", "PBM E-score": -0.06}
{"sequence": "CCTGGAAG", "PBM E-score": -0.162}
{"sequence": "ACACCGAG", "PBM E-score": -0.221}
{"sequence": "ACGACATC", "PBM E-score": -0.223}
{"sequence": "CACTACCC", "PBM E-score": -0.194}
